Reference: the supplement of paper PMC3334620
The full ranking holds about 33,000 sequences; the median of “E-score (-0.5 to 0.5)” is about -0.012, and the highest 2% start at about 0.27. Some of the results follow.

target: T1, Vhr1 (UniProt P40522); assay: PBM E-score (8-mer binding enrichment) (E-score (-0.5 to 0.5)); higher = stronger / more preferred TF binding; most listed sequences are background and not binding sites; conditions: protein concentration: 200 nM; construct: GST-full length
T1 sequence: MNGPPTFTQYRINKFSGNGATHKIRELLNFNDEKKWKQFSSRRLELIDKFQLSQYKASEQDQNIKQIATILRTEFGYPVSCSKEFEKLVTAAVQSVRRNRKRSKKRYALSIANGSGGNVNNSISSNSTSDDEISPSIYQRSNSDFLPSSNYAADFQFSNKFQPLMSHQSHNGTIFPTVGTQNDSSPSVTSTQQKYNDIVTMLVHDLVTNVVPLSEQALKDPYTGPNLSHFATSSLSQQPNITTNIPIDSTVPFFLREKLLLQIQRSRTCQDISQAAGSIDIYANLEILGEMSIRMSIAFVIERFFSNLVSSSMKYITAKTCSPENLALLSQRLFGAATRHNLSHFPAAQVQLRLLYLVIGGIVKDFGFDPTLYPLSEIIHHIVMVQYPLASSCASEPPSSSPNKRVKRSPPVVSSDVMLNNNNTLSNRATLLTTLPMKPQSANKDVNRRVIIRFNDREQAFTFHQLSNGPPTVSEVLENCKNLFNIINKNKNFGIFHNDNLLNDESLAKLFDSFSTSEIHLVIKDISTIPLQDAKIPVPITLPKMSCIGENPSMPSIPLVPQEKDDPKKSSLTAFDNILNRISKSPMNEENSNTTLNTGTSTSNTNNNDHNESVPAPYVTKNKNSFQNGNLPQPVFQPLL
How it was run: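 Masliner-normalised scans of fluorescent anti-GST signal were the basis for scoring. That signal came from GST-tagged yeast transcription factors applied at about 100-200 nM to double-stranded universal all-10-mer Agilent arrays on fresh or once-stripped slides. Each ungapped eight-base word, pooled with its reverse complement, received an E-score from the Universal PBM Analysis Suite.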

Sequence	PBM E-score
ATGTGTGG	0.08
TCAGCGCA	-0.0652
ACATATTA	0.0937
CTGGTAAG	-0.195
AGGTTTGA	-0.122
AAGAGGAA	-0.128
ATGCAATA	0.0134
GCAACAAC	-0.0563
CGAAATAA	-0.0349
TCACTTCA	-0.186
AAAGCTTA	-0.268
ACAACCAA	0.166
GAGCATAC	-0.0369
CGAATTCC	-0.061
AGTCCCAC	0.11
GATTCCCA	0.198
AAGCGTTC	-0.174
AGCATCCT	-0.182
AGACATCT	0.0558
GGTGTAGA	-0.0211
AGCACCGG	0.0651
AATAAAAT	0.0642
ATCTCCAC	-0.0319
GCCTGGCA	-0.229
GACCGTGC	-0.212

Sequence	PBM E-score
GTGAGCGA	0.103
AGGCTGAA	-0.0746
CCGTCTCC	0.12
CAGGAGCG	-0.0637
AAGGGTGA	0.0864
ACTCGTAT	0.2
AGAGACCC	-0.101
CACACTAA	0.2
ATTTAGCG	-0.208
ACCACAAC	0.258
ACTGCATA	0.232
CCGCCCAG	0.0078
GACTGCTA	-0.0725
CTGGGCTC	-0.135
ACTTAACT	-0.126
CTCGGGCC	0.17
CAATGGAC	0.0347
CCCAGACC	-0.0183
CGAGTCCA	-0.0942
GAGCGAAA	0.0518
ATGTATCA	0.267
GAGTAATC	0.165
GTAAATCA	0.209
AAAATGTT	-0.204
GCTGGACC	-0.106

Sequence	PBM E-score
AGAATCAG	0.283
AGTGCTCC	-0.194
AACCGATT	-0.0104
CGAACCAC	0.137
AAGTACGA	0.0855
GGGACGGA	-0.24
CAGGCATA	0.0822
GATAGCAC	-0.141
CGGAACAG	0.00759
GAAGCCGC	-0.131
TCCCACCA	-0.112
GACTGCTC	0.073
ATTAGGTA	-0.0382
GCGCCGCA	0.0412
GCGCATAA	-0.102
ATCTTACC	-0.135
GCATAGGA	-0.0605
ATCTCCCA	0.0996
ACTAGGTG	0.0989
GAAGTGAA	0.0112
GTCCGCTA	-0.117
AGCGCCCA	-0.00043
TGCCTAAA	-0.262
CAACGCTG	0.027
AGCGTTTA	-0.296

Sequence	PBM E-score
ACGTCTTA	-0.166
AGAATCTG	-0.173
GCTAAAAA	-0.265
CACGCATA	-0.0871
CAGAGTAC	0.00375
CGCTGCCG	-0.126
GACGGGCC	-0.177
TAACTAAA	-0.23
CCGCGGCC	0.106
ACTGCAAC	0.0291
GCCTAGCA	-0.252
CATCTAAA	-0.104
AAATGCCT	-0.182
GACATGTA	0.0533
GGGGCAAA	-0.0819
GCCGAAGA	-0.187
CCGGTCAG	-0.00524
ATCCGGTC	-0.0747
GTCCATAA	-0.169
AATATCCT	0.0597
GTGGCCTA	-0.0848
CCCTTTCA	-0.259
ATTAAGGC	-0.124
CACTTTAC	0.0069
CTAATCAA	0.12

Sequence	PBM E-score
CGTCTAAC	-0.16
AGGACGCC	-0.04
CAGCGAAA	-0.228
GGTTACGA	-0.144
ATGGGGTG	0.216
TTGATAAA	0.0581
ATAACGGG	-0.137
ATGAATCA	0.423
GACAAGTC	-0.088
CCGTATCA	0.176
GCTAATAC	0.0958
CTCTTCCA	-0.204
ACATTATA	0.101
ATTACAAG	-0.0785
CACGGGGA	0.087
CGAGCTCA	0.144
CAGGTAAG	-0.0858
AGGCGGTA	-0.00203
GTAAGCGA	-0.0171
CCATAAAC	-0.0214
TCCGAGAA	-0.307
GAATGACA	-0.165
AATAGCGT	-0.0117
CATACACG	0.176
CTGCAGGA	0.0985

Sequence	PBM E-score
AGGTCGAA	0.077
GGGTGGCA	-0.0446
GGTCCCAC	-0.0806
AGACGCGC	-0.0633
CGACCCGA	-0.138
AAGAATGT	-0.105
CCAGGCGG	0.208
GCGTAACC	-0.214
CGCCACCA	0.023
ATGGTTAC	0.213
CATATAGC	0.191
ATCGGCTA	0.0495
TATAACGA	0.0671
CCCACCTA	0.0868
ACGAGTGC	-0.173
ACTAAACC	0.139
CCGTTGAA	-0.205
CAGAATCC	0.0298
GAGTGACC	-0.00862
GGCAATTA	0.0696
AAGGGCAG	-0.0473
ACAGTAAA	4e-05
GGATTGGA	0.0389
CGACTTAC	-0.00322
AATCGCAA	0.044

Sequence	PBM E-score
CCTTCGTA	-0.0866
CTTTCGGC	-0.0681
CACATCTG	0.147
AGTACGGG	-0.095
TAAGCTAA	-0.00312
ATACCGGC	0.0247
CTGTTTAA	0.0359
TCTGGTAA	0.11
CGATAGTC	0.115
CGTGGCAA	-0.29
TCATTTAA	-0.021
GTACCGAC	0.0481
AGAACTCT	-0.12
AGGCACCG	-0.0242
GAGAGGCA	-0.0672
CCACACCA	0.141
AAGTAAAC	-0.0688
GTCGCCAC	0.0894
ATGGATAC	0.26
AAACAAAG	-0.0465
AGAATCGC	0.058
CACTATGC	0.0461
GTCGTACA	0.108
ATGCGGAA	-0.11
CCACACGG	-0.0821

Sequence	PBM E-score
AACACTAC	0.116
CGGCACAG	0.00884
GAGATTTA	-0.176
GGATTGAC	0.0766
CCGCGAAA	-0.0877
AGCCGTGC	-0.176
ACTTAATA	0.0637
CAAAGCTA	-0.191
ACGCCAAA	-0.156
CCCGTCAC	-0.0227
ATCGATGC	0.123
AGAAGCCA	-0.0236
ATGAGGAG	-0.157
GTCCAGGA	-0.224
GCATTTCC	0.0502
TTCACCAA	-0.179
AGTATCAC	-0.0911
GATCTTCC	-0.288
AATCACGG	0.259
GACGATAA	0.00693
CCGACTAG	0.0404
AAATTTAT	-0.0978
CTTAATGA	-0.0997
AGCGGCAT	0.102
CGATAACA	0.11

Sequence	PBM E-score
CAACACTG	0.0874
CGCTACCC	0.0326
AAACTGCC	-0.0499
CGTTCAGA	-0.214
AGTACAAA	0.123
CGGCGATA	0.174
CCGCAGAG	-0.0558
AACACGAG	-0.0814
AGCTAACC	-0.0353
ACTGATAT	0.169
ACACAAAT	0.0879
AAGCATGG	0.0495
ATGATGCA	0.16
ATTGCATA	0.147
ATCGTTGG	0.0315
AAGTATCA	0.0499
AAGATTAC	-0.0671
ACCTGAGG	-0.134
GCGATAGA	-0.072
